# Measured values: the supplement of paper PMC8728848
# The other results are listed elsewhere or left out.
# B1: Banana lectin (Musa acuminata) (protein)
# chain: MNGAIKVGAWGGNGGSAFDMGPAYRIISVKIFSGDVVDGVDVTFTYYGKTETRHYGGSGGTPHEIVLQEGEYLVGMAGEVANYTGAVVLGKLGFSTNKKAYGPFGNTGGTPFSLPIAAGKISGFFGRGGKFLDAIGVYLEPLEHHHHHH
# Experiments:
# Test in all cases: glycan array binding signal (z-score within array); higher = stronger binding
# Conditions in all cases: glycan notation: IUPAC condensed, linker removed; mutation: H84T
# [1] = target: Neu5Ac(a2-3)Gal(b1-3)GlcNAc(b1-6)GalNAc
# Outline: (§1)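 The Consortium for Functional Glycomics database supplied 3228 glycan arrays, of which those lacking an available protein sequence were dropped. The binding signal, a within-array Z-score, was averaged across arrays of the same protein sequence and across linkers. Negative scores can be read as non-binding.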
# [2] = target: Neu5Ac(a2-3)Gal(b1-3)GlcNAc6S
# Outline: as §1
# [3] = target: Neu5Ac(a2-3)Gal(b1-3)[Fuc(a1-4)]GlcNAc
# Outline: as §1
# [4] = target: Neu5Ac(a2-3)Gal(b1-3)[Fuc(a1-4)]GlcNAc(b1-3)Gal(b1-3)[Fuc(a1-4)]GlcNAc
# Outline: as §1
# [5] = target: Neu5Ac(a2-3)Gal(b1-3)[Fuc(a1-4)]GlcNAc(b1-3)Gal(b1-4)[Fuc(a1-3)]GlcNAc
# Outline: as §1
# [6] = target: Neu5Ac(a2-3)Gal(b1-3)[GlcNAc(b1-6)]GalNAc
# Outline: as §1
# [7] = target: Neu5Ac(a2-3)Gal(b1-3)[Neu5Ac(a2-6)]GalNAc
# Outline: as §1
# [8] = target: Neu5Ac(a2-3)Gal(b1-3)[Neu5Ac(a2-6)]GlcNAc(b1-3)[Fuc(a1-3)[Gal(b1-4)]GlcNAc(b1-6)]Gal(b1-4)Glc
# Outline: as §1
# [9] = target: Neu5Ac(a2-3)Gal(b1-3)]Neu5Ac(a2-3)Gal(b1-4)]GlcNAc
# Outline: as §1
# [10] = target: Neu5Ac(a2-3)Gal(b1-4)Glc
# Outline: as §1
# [11] = target: Neu5Ac(a2-3)Gal(b1-4)GlcNAc
# Outline: as §1
# [12] = target: Neu5Ac(a2-3)Gal(b1-4)GlcNAc(b1-2)Man
# Outline: as §1
# [13] = target: Neu5Ac(a2-3)Gal(b1-4)GlcNAc(b1-2)Man(a1-3)[GlcNAc(b1-4)][Neu5Ac(a2-3)Gal(b1-4)GlcNAc(b1-2)Man(a1-6)]Man(b1-4)GlcNAc(b1-4)GlcNAc
# Outline: as §1
# [14] = target: Neu5Ac(a2-3)Gal(b1-4)GlcNAc(b1-2)Man(a1-3)[Neu5Ac(a2-3)Gal(b1-4)GlcNAc(b1-2)Man(a1-6)]Man(b1-4)GlcNAc(b1-4)GlcNAc
# Outline: as §1
# [15] = target: Neu5Ac(a2-3)Gal(b1-4)GlcNAc(b1-2)Man(a1-3)[Neu5Ac(a2-3)Gal(b1-4)GlcNAc(b1-2)Man(a1-6)]Man(b1-4)GlcNAc(b1-4)[Fuc(a1-6)]GlcNAc
# Outline: as §1
# [16] = target: Neu5Ac(a2-3)Gal(b1-4)GlcNAc(b1-2)Man(a1-3)[Neu5Ac(a2-6)Gal(b1-4)GlcNAc(b1-2)Man(a1-6)]Man(b1-4)GlcNAc(b1-4)GlcNAc
# Outline: as §1
# [17] = target: Neu5Ac(a2-3)Gal(b1-4)GlcNAc(b1-2)[Neu5Ac(a2-3)Gal(b1-4)GlcNAc(b1-4)]Man(a1-3)[GlcNAc(b1-4)][Neu5Ac(a2-3)Gal(b1-4)GlcNAc(b1-2)[Neu5Ac(a2-3)Gal(b1-4)GlcNAc(b1-6)]Man(a1-6)]Man(b1-4)GlcNAc(b1-4)GlcNAc
# Outline: as §1
# [18] = target: Neu5Ac(a2-3)Gal(b1-4)GlcNAc(b1-2)[Neu5Ac(a2-3)Gal(b1-4)GlcNAc(b1-4)]Man(a1-3)[GlcNAc(b1-4)][Neu5Ac(a2-3)Gal(b1-4)GlcNAc(b1-4)Man(a1-6)]Man(b1-4)GlcNAc(b1-4)GlcNAc
# Outline: as §1
# [19] = target: Neu5Ac(a2-3)Gal(b1-4)GlcNAc(b1-2)[Neu5Ac(a2-3)Gal(b1-4)GlcNAc(b1-6)]Man(a1-6)[Neu5Ac(a2-3)Gal(b1-4)GlcNAc(b1-2)Man(a1-3)][GlcNAc(b1-4)]Man(b1-4)GlcNAc(b1-4)GlcNAc
# Outline: as §1
# [20] = target: Neu5Ac(a2-3)Gal(b1-4)GlcNAc(b1-3)Gal
# Outline: as §1
# [21] = target: Neu5Ac(a2-3)Gal(b1-4)GlcNAc(b1-3)Gal(b1-3)GlcNAc
# Outline: as §1
# [22] = target: Neu5Ac(a2-3)Gal(b1-4)GlcNAc(b1-3)Gal(b1-4)GlcNAc
# Outline: as §1
# [23] = target: Neu5Ac(a2-3)Gal(b1-4)GlcNAc(b1-3)Gal(b1-4)GlcNAc(b1-2)Man(a1-3)[Neu5Ac(a2-3)Gal(b1-4)GlcNAc(b1-3)Gal(b1-4)GlcNAc(b1-2)Man(a1-6)]Man(b1-4)GlcNAc(b1-4)GlcNAc
# Outline: as §1
# [24] = target: Neu5Ac(a2-3)Gal(b1-4)GlcNAc(b1-3)Gal(b1-4)GlcNAc(b1-3)Gal(b1-4)GlcNAc
# Outline: as §1
# [25] = target: Neu5Ac(a2-3)Gal(b1-4)GlcNAc(b1-3)Gal(b1-4)GlcNAc(b1-3)Gal(b1-4)GlcNAc(b1-2)Man(a1-3)[Neu5Ac(a2-3)Gal(b1-4)GlcNAc(b1-3)Gal(b1-4)GlcNAc(b1-3)Gal(b1-4)GlcNAc(b1-2)Man(a1-6)]GalNAc
# Outline: as §1
# [26] = target: Neu5Ac(a2-3)Gal(b1-4)GlcNAc(b1-3)Gal(b1-4)GlcNAc(b1-3)GalNAc
# Outline: as §1
# [27] = target: Neu5Ac(a2-3)Gal(b1-4)GlcNAc(b1-3)Gal(b1-4)GlcNAc(b1-3)[Neu5Ac(a2-3)Gal(b1-4)GlcNAc(b1-3)Gal(b1-4)GlcNAc(b1-6)]GalNAc
# Outline: as §1
# [28] = target: Neu5Ac(a2-3)Gal(b1-4)GlcNAc(b1-3)Gal(b1-4)GlcNAc(b1-6)[Gal(b1-3)]GalNAc
# Outline: as §1
# [29] = target: Neu5Ac(a2-3)Gal(b1-4)GlcNAc(b1-3)Gal(b1-4)[Fuc(a1-3)]GlcNAc
# Outline: as §1
# [30] = target: Neu5Ac(a2-3)Gal(b1-4)GlcNAc(b1-3)GalNAc
# Outline: as §1
# [31] = target: Neu5Ac(a2-3)Gal(b1-4)GlcNAc(b1-3)[Neu5Ac(a2-3)Gal(b1-4)GlcNAc(b1-6)]GalNAc
# Outline: as §1
# [32] = target: Neu5Ac(a2-3)Gal(b1-4)GlcNAc(b1-6)GalNAc
# Outline: as §1
# [33] = target: Neu5Ac(a2-3)Gal(b1-4)GlcNAc(b1-6)[Gal(b1-3)]GalNAc
# Outline: as §1
# [34] = target: Neu5Ac(a2-3)Gal(b1-4)GlcNAc(b1-6)[Neu5Ac(a2-3)Gal(b1-3)]GalNAc
# Outline: as §1
# [35] = target: Neu5Ac(a2-3)Gal(b1-4)GlcNAc6S
# Outline: as §1
# [36] = target: Neu5Ac(a2-3)Gal(b1-4)[Fuc(a1-3)]GlcNAc
# Outline: as §1
# [37] = target: Neu5Ac(a2-3)Gal(b1-4)[Fuc(a1-3)]GlcNAc(b1-2)Man
# Outline: as §1
# [38] = target: Neu5Ac(a2-3)Gal(b1-4)[Fuc(a1-3)]GlcNAc(b1-3)Gal
# Outline: as §1
# [39] = target: Neu5Ac(a2-3)Gal(b1-4)[Fuc(a1-3)]GlcNAc(b1-3)Gal(b1-4)GlcNAc
# Outline: as §1
# [40] = target: Neu5Ac(a2-3)Gal(b1-4)[Fuc(a1-3)]GlcNAc(b1-3)Gal(b1-4)[Fuc(a1-3)]GlcNAc(b1-3)Gal(b1-4)[Fuc(a1-3)]GlcNAc
# Outline: as §1
# [41] = target: Neu5Ac(a2-3)Gal(b1-4)[Fuc(a1-3)]GlcNAc(b1-3)GalNAc
# Outline: as §1
# [42] = target: Neu5Ac(a2-3)Gal(b1-4)[Fuc(a1-3)]GlcNAc(b1-6)[Gal(b1-3)]GalNAc
# Outline: as §1
# [43] = target: Neu5Ac(a2-3)Gal(b1-4)[Fuc(a1-3)]GlcNAc(b1-6)[Neu5Ac(a2-3)Gal(b1-3)]GalNAc
# Outline: as §1
# [44] = target: Neu5Ac(a2-3)Gal(b1-4)[Fuc(a1-3)]GlcNAc6S
# Outline: as §1
# [45] = target: Neu5Ac(a2-3)Gal6S(b1-4)GlcNAc
# Outline: as §1
binder,measurement,setting,value
B1,glycan array binding signal (z-score),[1],-0.203
same,glycan array binding signal (z-score),[2],-0.151
same,glycan array binding signal (z-score),[3],-0.13
same,glycan array binding signal (z-score),[4],-0.084
same,glycan array binding signal (z-score),[5],-0.047
same,glycan array binding signal (z-score),[6],-0.189
same,glycan array binding signal (z-score),[7],-0.185
same,glycan array binding signal (z-score),[8],-0.182
same,glycan array binding signal (z-score),[9],-0.179
same,glycan array binding signal (z-score),[10],-0.168
same,glycan array binding signal (z-score),[11],-0.185
same,glycan array binding signal (z-score),[12],-0.188
same,glycan array binding signal (z-score),[13],-0.167
same,glycan array binding signal (z-score),[14],-0.182
same,glycan array binding signal (z-score),[15],-0.163
same,glycan array binding signal (z-score),[16],-0.181
same,glycan array binding signal (z-score),[17],-0.098
same,glycan array binding signal (z-score),[18],-0.199
same,glycan array binding signal (z-score),[19],-0.182
same,glycan array binding signal (z-score),[20],-0.163
same,glycan array binding signal (z-score),[21],-0.175
same,glycan array binding signal (z-score),[22],-0.193
same,glycan array binding signal (z-score),[23],-0.083
same,glycan array binding signal (z-score),[24],-0.194
same,glycan array binding signal (z-score),[25],-0.071
same,glycan array binding signal (z-score),[26],-0.181
same,glycan array binding signal (z-score),[27],-0.109
same,glycan array binding signal (z-score),[28],-0.179
same,glycan array binding signal (z-score),[29],-0.179
same,glycan array binding signal (z-score),[30],-0.194
same,glycan array binding signal (z-score),[31],-0.091
same,glycan array binding signal (z-score),[32],-0.172
same,glycan array binding signal (z-score),[33],-0.143
same,glycan array binding signal (z-score),[34],-0.184
same,glycan array binding signal (z-score),[35],-0.184
same,glycan array binding signal (z-score),[36],-0.19
same,glycan array binding signal (z-score),[37],-0.188
same,glycan array binding signal (z-score),[38],-0.16
same,glycan array binding signal (z-score),[39],-0.173
same,glycan array binding signal (z-score),[40],-0.183
same,glycan array binding signal (z-score),[41],-0.13
same,glycan array binding signal (z-score),[42],-0.16
same,glycan array binding signal (z-score),[43],-0.176
same,glycan array binding signal (z-score),[44],-0.163
same,glycan array binding signal (z-score),[45],-0.176
